# Test results as given in the supplement of paper PMC4967469.
# The IC50 comes from the fitted curve, where viability falls to half of the control; a limit (>, <) means that the fit lies beyond the doses tested. AUC sums up the same curve from the lowest dose to the 256-fold higher top dose; it is 1 without any effect and falls as sensitivity rises.
# Compound: FC(F)c1nc2ccccc2n1-c1nc(N2CCOCC2)nc(N2CCOCC2)n1 [ZSTK474]
# Test: Viability of human cancer cell lines after 72 h of drug (GDSC screen)
# Experimental: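 Human cancer cell lines in 384-well plates, medium with 10% serum, drug for 72 h over a 256-fold dose range (nine 2-fold or five 4-fold steps up to the top dose). Adherent lines were fixed and stained with the nucleic acid dye Syto60, suspension lines read with resazurin; signal relative to control wells, capped at 0 and 100%. One two-parameter sigmoid per drug and line, fitted in a mixed model over all curves with the slope shared within a line.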
Cell Line,AUC,IC50
"SK-N-AS (neuroblastoma, adherent, top dose 5.12 µM)",0.646,870 nM
"SK-N-DZ (neuroblastoma, adherent, top dose 5.12 µM)",0.814,2750 nM
"SK-N-FI (neuroblastoma, adherent, top dose 5.12 µM)",0.859,4220 nM
"SK-N-SH (neuroblastoma, adherent, top dose 5.12 µM)",0.818,2840 nM
"SK-OV-3 (ovary, adherent, top dose 5.12 µM)",0.652,947 nM
"SK-PN-DW (Ewing sarcoma, adherent, top dose 5.12 µM)",0.809,2790 nM
"SK-UT-1 (soft tissue, adherent, top dose 5.12 µM)",0.91,> 5120 nM
"SKG-IIIa (cervix, adherent, top dose 5.12 µM)",0.961,> 5120 nM
"SKN (uterus, adherent, top dose 5.12 µM)",0.742,1860 nM
"SKN-3 (head and neck, adherent, top dose 5.12 µM)",0.928,> 5120 nM
"SLVL (B-cell lymphoma, suspension, top dose 5.12 µM)",0.603,625 nM
"SN12C (kidney, adherent, top dose 5.12 µM)",0.931,> 5120 nM
"SNB75 (glioma, adherent, top dose 5.12 µM)",0.877,> 5120 nM
"SNG-M (endometrium, adherent, top dose 5.12 µM)",0.724,1360 nM
"SNU-61 (large intestine, adherent, top dose 5.12 µM)",0.889,> 5120 nM
"SNU-81 (large intestine, adherent, top dose 5.12 µM)",0.431,195 nM
"SNU-175 (large intestine, suspension, top dose 5.12 µM)",0.753,1620 nM
"SNU-182 (liver, adherent, top dose 10.24 µM)",0.478,556 nM
"SNU-387 (liver, adherent, top dose 5.12 µM)",0.559,473 nM
"SNU-398 (liver, adherent, top dose 5.12 µM)",0.786,2310 nM
"SNU-407 (large intestine, adherent, top dose 5.12 µM)",0.71,1400 nM
"SNU-423 (liver, adherent, top dose 5.12 µM)",0.488,295 nM
"SNU-449 (liver, adherent, top dose 5.12 µM)",0.731,1560 nM
"SNU-475 (liver, adherent, top dose 5.12 µM)",0.892,4830 nM
"SNU-1040 (large intestine, adherent, top dose 5.12 µM)",0.677,1190 nM
"SNU-C1 (large intestine, suspension, top dose 5.12 µM)",0.846,> 5120 nM
"SNU-C2B (large intestine, adherent, top dose 5.12 µM)",0.827,4540 nM

Cell Line,AUC,IC50
"SNU-C5 (large intestine, adherent, top dose 5.12 µM)",0.864,> 5120 nM
"SR (lymphoid neoplasm, suspension, top dose 5.12 µM)",0.531,385 nM
"ST486 (Burkitt lymphoma, suspension, top dose 5.12 µM)",0.545,419 nM
"STS-0421 (soft tissue, adherent, top dose 5.12 µM)",0.744,1830 nM
"SU8686 (pancreas, adherent, top dose 5.12 µM)",0.928,> 5120 nM
"SU-DHL-1 (anaplastic large cell lymphoma, suspension, top dose 5.12 µM)",0.539,397 nM
"SU-DHL-4 (B-cell lymphoma, suspension, top dose 5.12 µM)",0.477,282 nM
"SU-DHL-5 (B-cell lymphoma, suspension, top dose 5.12 µM)",0.209,60 nM
"SU-DHL-6 (B-cell lymphoma, suspension, top dose 5.12 µM)",0.013,< 20 nM
"SU-DHL-8 (B-cell lymphoma, suspension, top dose 5.12 µM)",0.453,240 nM
"SU-DHL-10 (B-cell lymphoma, suspension, top dose 5.12 µM)",0.185,54.9 nM
"SU-DHL-16 (B-cell lymphoma, suspension, top dose 5.12 µM)",0.458,253 nM
"SUIT-2 (pancreas, adherent, top dose 5.12 µM)",0.677,1030 nM
"SUP-B15 (lymphoblastic leukaemia, suspension, top dose 5.12 µM)",0.377,149 nM
"SUP-HD1 (Hodgkin lymphoma, suspension, top dose 5.12 µM)",0.699,1130 nM
"SUP-M2 (anaplastic large cell lymphoma, suspension, top dose 5.12 µM)",0.444,233 nM
"SUP-T1 (T-cell lymphoblastic leukaemia, suspension, top dose 5.12 µM)",0.626,687 nM
"SW13 (adrenal gland, adherent, top dose 5.12 µM)",0.988,> 5120 nM
"SW48 (large intestine, adherent, top dose 5.12 µM)",0.839,3490 nM
"SW156 (kidney, adherent, top dose 5.12 µM)",0.79,2560 nM
"SW620 (large intestine, adherent, top dose 5.12 µM)",0.8,2160 nM
"SW626 (ovary, adherent, top dose 5.12 µM)",0.549,447 nM
"SW684 (fibrosarcoma, adherent, top dose 5.12 µM)",0.959,> 5120 nM
"SW756 (cervix, adherent, top dose 5.12 µM)",0.983,> 5120 nM
"SW780 (bladder, adherent, top dose 5.12 µM)",0.974,> 5120 nM
"SW837 (large intestine, adherent, top dose 5.12 µM)",0.71,1540 nM
"SW872 (soft tissue, adherent, top dose 5.12 µM)",0.896,> 5120 nM

Cell Line,AUC,IC50
"SW900 (lung squamous cell carcinoma, adherent, top dose 5.12 µM)",0.893,> 5120 nM
"SW948 (large intestine, adherent, top dose 5.12 µM)",0.83,> 5120 nM
"SW954 (urogenital system, adherent, top dose 5.12 µM)",0.554,451 nM
"SW962 (urogenital system, adherent, top dose 5.12 µM)",0.804,3340 nM
"SW982 (soft tissue, adherent, top dose 5.12 µM)",0.985,> 5120 nM
"SW1088 (glioma, adherent, top dose 5.12 µM)",0.817,4000 nM
"SW1116 (large intestine, adherent, top dose 5.12 µM)",0.963,> 5120 nM
"SW1271 (small cell lung carcinoma, adherent, top dose 5.12 µM)",0.813,3290 nM
"SW1417 (large intestine, adherent, top dose 5.12 µM)",0.919,> 5120 nM
"SW1463 (large intestine, adherent, top dose 5.12 µM)",0.617,845 nM
"SW1573 (lung adenocarcinoma, adherent, top dose 5.12 µM)",0.839,> 5120 nM
"SW1710 (bladder, adherent, top dose 5.12 µM)",0.581,538 nM
"SW1783 (glioma, adherent, top dose 5.12 µM)",0.976,> 5120 nM
"SW1990 (pancreas, adherent, top dose 5.12 µM)",0.886,> 5120 nM
"Saos-2 (osteosarcoma, adherent, top dose 5.12 µM)",0.956,> 5120 nM
"SiHa (cervix, adherent, top dose 5.12 µM)",0.972,> 5120 nM
"T47D (breast, adherent, top dose 5.12 µM)",0.439,200 nM
"T84 (large intestine, adherent, top dose 5.12 µM)",0.817,2920 nM
"T98G (glioma, adherent, top dose 5.12 µM)",0.907,> 5120 nM
"T-24 (bladder, adherent, top dose 5.12 µM)",0.92,> 5120 nM
"T-T (oesophagus, adherent, top dose 5.12 µM)",0.974,> 5120 nM
"TALL-1 (T-cell lymphoblastic leukaemia, suspension, top dose 5.12 µM)",0.949,> 5120 nM
"TC-71 (Ewing sarcoma, adherent, top dose 5.12 µM)",0.709,1100 nM
"TCCSUP (bladder, adherent, top dose 5.12 µM)",0.931,> 5120 nM
"TE-1 (oesophagus, adherent, top dose 5.12 µM)",0.845,> 5120 nM
"TE-4 (oesophagus, adherent, top dose 5.12 µM)",0.718,1320 nM
